This is one part of the list.
Assays:
Test in all cases: glycan array binding signal (z-score within array); higher = stronger binding
Conditions in all cases: glycan notation: IUPAC condensed, linker removed
[1] = target: Gal(a1-3)Gal(b1-4)GlcNAc(b1-2)Man
In short: (§1)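 Columns mapping to the same glycan were averaged after glycan names were converted to IUPAC-condensed notation. The data come from 3228 arrays in the Consortium for Functional Glycomics database, limited to those with an available protein sequence. Binding is reported as a within-array Z-score averaged across arrays of one protein sequence and across linkers.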

[2] = target: Gal(a1-3)Gal(b1-4)GlcNAc(b1-2)Man(a1-3)[Gal(a1-3)Gal(b1-4)GlcNAc(b1-2)Man(a1-6)]Man(b1-4)GlcNAc(b1-4)GlcNAc
In short: as §1

[3] = target: Gal(a1-3)Gal(b1-4)GlcNAc(b1-3)GalNAc
In short: as §1

[4] = target: Gal(a1-3)Gal(b1-4)GlcNAc(b1-6)GalNAc
In short: as §1

[5] = target: Gal(a1-3)Gal(b1-4)[Fuc(a1-3)]GlcNAc
In short: as §1

[6] = target: Gal(a1-3)Gal(b1-4)[Fuc(a1-3)]GlcNAc(b1-2)Man(a1-3)[Gal(a1-3)Gal(b1-4)[Fuc(a1-3)]GlcNAc(b1-2)Man(a1-6)]Man(b1-4)GlcNAc(b1-4)GlcNAc
In short: as §1

Gal(a1-3)GalNAc = target: Gal(a1-3)GalNAc
In short: as §1

[7] = target: Gal(a1-3)[Gal(a1-4)]Gal(b1-4)GlcNAc
In short: as §1

[8] = target: Gal(a1-4)Gal(b1-3)GlcNAc(b1-2)Man(a1-3)[Gal(a1-4)Gal(b1-3)GlcNAc(b1-2)Man(a1-6)]Man(b1-4)GlcNAc(b1-4)GlcNAc
In short: as §1

Gal(a1-4)Gal(b1-4)Glc = target: Gal(a1-4)Gal(b1-4)Glc
In short: as §1

Gal(a1-4)Gal(b1-4)GlcNAc = target: Gal(a1-4)Gal(b1-4)GlcNAc
In short: as §1

[9] = target: Gal(a1-4)Gal(b1-4)GlcNAc(b1-2)Man(a1-3)[Gal(a1-4)Gal(b1-4)GlcNAc(b1-2)Man(a1-6)]Man(b1-4)GlcNAc(b1-4)GlcNAc
In short: as §1

[10] = target: Gal(a1-4)Gal(b1-4)GlcNAc(b1-3)Gal(b1-4)Glc
In short: as §1

Gal(a1-4)GlcNAc = target: Gal(a1-4)GlcNAc
In short: as §1

Gal(a1-6)Glc = target: Gal(a1-6)Glc
In short: as §1

Gal(b1-2)Gal = target: Gal(b1-2)Gal
In short: as §1

Gal(b1-3)Gal = target: Gal(b1-3)Gal
In short: as §1

Gal(b1-3)Gal(b1-4)GlcNAc = target: Gal(b1-3)Gal(b1-4)GlcNAc
In short: as §1

Gal(b1-3)GalNAc = target: Gal(b1-3)GalNAc
In short: as §1

[11] = target: Gal(b1-3)GalNAc(a1-3)[Fuc(a1-2)]Gal(b1-4)Glc
In short: as §1

[12] = target: Gal(b1-3)GalNAc(a1-3)[Fuc(a1-2)]Gal(b1-4)GlcNAc
In short: as §1

Gal(b1-3)GalNAc(b1-3)Gal = target: Gal(b1-3)GalNAc(b1-3)Gal
In short: as §1

[13] = target: Gal(b1-3)GalNAc(b1-3)Gal(a1-4)Gal(b1-4)Glc
In short: as §1

[14] = target: Gal(b1-3)GalNAc(b1-4)Gal(b1-4)Glc
In short: as §1

[15] = target: Gal(b1-3)GalNAc(b1-4)[Neu5Ac(a2-3)]Gal(b1-4)Glc
In short: as §1

Gal(b1-3)GlcNAc = target: Gal(b1-3)GlcNAc
In short: as §1

[16] = target: Gal(b1-3)GlcNAc(a1-3)Gal(b1-4)GlcNAc
In short: as §1

[17] = target: Gal(b1-3)GlcNAc(a1-6)Gal(b1-4)GlcNAc
In short: as §1

Gal(b1-3)GlcNAc(b1-2)Man = target: Gal(b1-3)GlcNAc(b1-2)Man
In short: as §1

[18] = target: Gal(b1-3)GlcNAc(b1-2)Man(a1-3)[Gal(b1-3)GlcNAc(b1-2)Man(a1-6)]Man(b1-4)GlcNAc(b1-4)GlcNAc
In short: as §1

[19] = target: Gal(b1-3)GlcNAc(b1-2)Man(a1-3)[Gal(b1-3)GlcNAc(b1-2)Man(a1-6)]Man(b1-4)GlcNAc(b1-4)[Fuc(a1-6)]GlcNAc
In short: as §1

[20] = target: Gal(b1-3)GlcNAc(b1-2)Man(a1-3)[GlcNAc(b1-4)][Gal(b1-3)GlcNAc(b1-2)Man(a1-6)]Man(b1-4)GlcNAc(b1-4)GlcNAc
In short: as §1

[21] = target: Gal(b1-3)GlcNAc(b1-2)[Gal(b1-3)GlcNAc(b1-6)]Man(a1-6)[Gal(b1-3)GlcNAc(b1-2)Man(a1-3)]Man(b1-4)GlcNAc(b1-4)GlcNAc
In short: as §1

[22] = target: Gal(b1-3)GlcNAc(b1-3)Gal(b1-3)GlcNAc
In short: as §1

[23] = target: Gal(b1-3)GlcNAc(b1-3)Gal(b1-4)Glc
In short: as §1

[24] = target: Gal(b1-3)GlcNAc(b1-3)Gal(b1-4)GlcNAc
In short: as §1

[25] = target: Gal(b1-3)GlcNAc(b1-3)Gal(b1-4)GlcNAc(b1-2)Man(a1-3)[Gal(b1-3)GlcNAc(b1-3)Gal(b1-4)GlcNAc(b1-2)Man(a1-6)]Man(b1-4)GlcNAc(b1-4)GlcNAc
In short: as §1

[26] = target: Gal(b1-3)GlcNAc(b1-3)Gal(b1-4)GlcNAc(b1-2)[Gal(b1-3)GlcNAc(b1-3)Gal(b1-4)GlcNAc(b1-6)]Man(a1-6)[Gal(b1-3)GlcNAc(b1-3)Gal(b1-4)GlcNAc(b1-2)Man(a1-3)]Man(b1-4)GlcNAc(b1-4)[Fuc(a1-6)]GlcNAc
In short: as §1

[27] = target: Gal(b1-3)GlcNAc(b1-3)Gal(b1-4)GlcNAc(b1-3)Gal(b1-4)GlcNAc(b1-2)[Gal(b1-3)GlcNAc(b1-3)Gal(b1-4)GlcNAc(b1-3)Gal(b1-4)GlcNAc(b1-6)]Man(a1-6)[Gal(b1-3)GlcNAc(b1-3)Gal(b1-4)GlcNAc(b1-3)Gal(b1-4)GlcNAc(b1-2)Man(a1-3)]Man(b1-4)GlcNAc(b1-4)[Fuc(a1-6)]GlcNAc
In short: as §1

[28] = target: Gal(b1-3)GlcNAc(b1-3)Gal(b1-4)GlcNAc(b1-6)[Gal(b1-3)GlcNAc(b1-3)]Gal(b1-4)Glc
In short: as §1

[29] = target: Gal(b1-3)GlcNAc(b1-3)Gal(b1-4)[Fuc(a1-3)]GlcNAc
In short: as §1

[30] = target: Gal(b1-3)GlcNAc(b1-3)Gal(b1-4)[Fuc(a1-3)]GlcNAc(b1-6)[Gal(b1-3)GlcNAc(b1-3)]Gal(b1-4)Glc
In short: as §1

[31] = target: Gal(b1-3)GlcNAc(b1-3)GalNAc
In short: as §1

[32] = target: Gal(b1-3)GlcNAc(b1-6)Gal(b1-4)GlcNAc
In short: as §1

[33] = target: Gal(b1-3)GlcNAc(b1-6)GalNAc
In short: as §1

B1: Mermaid3 (Stilbonema majum) (protein)
chain: MGSSHHHHHHSSGLVPRGSHMAASGWLRSPQGTVVKLYRRSLSWSKADEFCKDVDGRLVVDRTADMHLFLIKNVLKEKKSRVWVGLRRTASHSRTWIWSDGTRQNEGDLDANLWLRDEPNDAAGEEECALFMYSPWEKAWGLNDYLCRGGCRNYQFICEKWIR
glycan array binding signal (z-score) [1]: -0.275 | glycan array binding signal (z-score) [2]: 0.213 | glycan array binding signal (z-score) [3]: -0.64 | glycan array binding signal (z-score) [4]: -0.858 | glycan array binding signal (z-score) [5]: -0.5 | glycan array binding signal (z-score) [6]: -0.164 | glycan array binding signal (z-score) (Gal(a1-3)GalNAc): -0.489 | glycan array binding signal (z-score) [7]: 0.067 | glycan array binding signal (z-score) [8]: -0.405 | glycan array binding signal (z-score) (Gal(a1-4)Gal(b1-4)Glc): 0.311 | glycan array binding signal (z-score) (Gal(a1-4)Gal(b1-4)GlcNAc): -0.038 | glycan array binding signal (z-score) [9]: 1.59 | glycan array binding signal (z-score) [10]: -0.064 | glycan array binding signal (z-score) (Gal(a1-4)GlcNAc): -0.741 | glycan array binding signal (z-score) (Gal(a1-6)Glc): -0.269 | glycan array binding signal (z-score) (Gal(b1-2)Gal): -0.062 | glycan array binding signal (z-score) (Gal(b1-3)Gal): -0.277 | glycan array binding signal (z-score) (Gal(b1-3)Gal(b1-4)GlcNAc): 0.587 | glycan array binding signal (z-score) (Gal(b1-3)GalNAc): 0.892 | glycan array binding signal (z-score) [11]: 0.896 | glycan array binding signal (z-score) [12]: 0.49 | glycan array binding signal (z-score) (Gal(b1-3)GalNAc(b1-3)Gal): 1.33 | glycan array binding signal (z-score) [13]: -0.2 | glycan array binding signal (z-score) [14]: -0.109 | glycan array binding signal (z-score) [15]: -0.021 | glycan array binding signal (z-score) (Gal(b1-3)GlcNAc): -0.295 | glycan array binding signal (z-score) [16]: -0.698 | glycan array binding signal (z-score) [17]: -0.662 | glycan array binding signal (z-score) (Gal(b1-3)GlcNAc(b1-2)Man): -0.094 | glycan array binding signal (z-score) [18]: -0.627 | glycan array binding signal (z-score) [19]: -0.057 | glycan array binding signal (z-score) [20]: 0.005 | glycan array binding signal (z-score) [21]: 0.317 | glycan array binding signal (z-score) [22]: -0.164 | glycan array binding signal (z-score) [23]: -0.458 | glycan array binding signal (z-score) [24]: -0.698 | glycan array binding signal (z-score) [25]: -0.35 | glycan array binding signal (z-score) [26]: 1.22 | glycan array binding signal (z-score) [27]: 5.6 | glycan array binding signal (z-score) [28]: -0.577 | glycan array binding signal (z-score) [29]: -0.358 | glycan array binding signal (z-score) [30]: -0.423 | glycan array binding signal (z-score) [31]: -0.339 | glycan array binding signal (z-score) [32]: -0.045 | glycan array binding signal (z-score) [33]: -0.286

— the supplement of paper PMC8728848
